Results published in the supplement of paper PMC11417369.
The other results are listed elsewhere or left out.

system: PfHDP1 homeodomain (GST-tagged); test: gcPBM binding intensity (ln(normalized median fluorescence intensity)); higher = stronger DNA binding
Procedure, shortened: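 The highest Masliner-normalised natural-log median intensity across replicate spots of either probe orientation is reported as binding intensity. GST-tagged P. falciparum DNA-binding domains expressed in E. coli were applied for 1 h to an Agilent 4 × 180k array of primer-extended double-stranded 36-bp intergenic genomic probes plus negative controls, and bound protein was detected with Alexa488 anti-GST antibody and scanned at 488 nm.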

Sequence | gcPBM binding intensity (ln)
TATTTTGAAAAAGTTGCACACAAAATTTAAAAAAAA [CACACA_site8470] | 9.29
ATAATGATATATTATAAACACACAAAGATGAATATA [CACACA_site8914] | 6.56
AGGATATGCAGACACACACACATATATATATATATA [CACACA_site2201] | 9.34
TTTTTTAATAATAGGAAAATGAATATTATATCGAAT [TGCATGCA_negctrl_site543] | 6.53
GTTATAGAAGCATTCACACACACACCCACATACACA [CACACA_site1465] | 7
TTACATAATATATGTACACACGCAAATACTTAGAAT [CACACA_site320] | 6.63
AAACGATTACTGTGTACACACATAGTTATAAACATA [CACACA_site5195] | 6.71
GAATGTTAACGTTGCACACAAAAAAAAAGTATACAT [CACACA_site2415] | 9.39
TTTTTTTTTTTTTCAAGTACATAACTTACCCCTTTT [XGTACX_site6207] | 6.37
TTATATGCATAAAAACGTACAAAAATGTATTCATGT [XGTACX_site2215] | 6.49
ATAAATATATGAAATATACACACTTCTTTGGTATTA [CACACA_site456] | 6.3
TTTCGTAACTATTTGTGTACATATATATATATATAT [XGTACX_site2920] | 9.32
ATTTTCTTTTCCATAGTGCAATATAATTATCCATCA [GTGCAC_site9547] | 10.9
TTATTATTTTATAACACACACATATAGATTATAGCT [CACACA_site6787] | 6.43
ATATATATATATATAAAGTGAAGTATGAGGGAAATA [XGTACX_negctrl_site497] | 9.22
TATGTATGTATTAATGCGCACACAAAAAATAACAAT [CACACA_site8551] | 7.73
AAAAATTAAATATAAAGTACAAAATTAAAATCTTAA [XGTACX_site931] | 5.89
TTTTGTATTTATGGATGTACATAATATGTTTTAAAC [XGTACX_site3278] | 6.68
ATACATATATATATGTGTACATATTATATATACATA [XGTACX_site8420] | 6.38
TTTCCATATATAGAACGTACAAAGATCTTTGTTACT [XGTACX_site8972] | 6.65
TATATATATTTATACACACAAACATAATACTACTTA [CACACA_site2022] | 6.86
TAGCTTTTGCCTTTTTTTAAAAAAAAATAAATAAAT [TGCATGCA_negctrl_site242] | 6.18

Sequence | gcPBM binding intensity (ln)
TGCATATACATATGTAGTACAATAATTTGAAAAAAA [XGTACX_site5239] | 6.37
TTTTTTTTTATGTGCACACAAAAGATGCTTATATTT [CACACA_site2348] | 11.2
TATATATGGTATAATTGTACTAACGCCAACTATACC [XGTACX_site5853] | 6.44
ATAAATACACACAAGTGTACATACTTCTATAAATAT [XGTACX_site1845] | 7.04
GTTATAAATAAATACACACATACAAAAATATGACGT [CACACA_site1154] | 6.57
ATATAAAATACATGGGTGCAATATATTAAACAAATA [GTGCAC_site9421] | 9.33
TATGACCTTAGAAATTGTACAAGAAAAAATGTTACA [XGTACX_site7084] | 6.57
TCACATACATGAAAATGTACTTTTATAATTCCATAA [XGTACX_site1836] | 6.3
ATCGTGAATAATATCTGTACATATGAACACATATAT [XGTACX_site952] | 6.54
TAAAGGTGAACAATACGTACATAAGAACTTATGAGG [XGTACX_site4216] | 6.43
TCTGTAAATACGTGCACACACAAATCACAAATGTGA [CACACA_site330] | 9.55
TAAATAATTTCACGAATGACAAAGATATAATAAGTT [CACACA_negctrl_site1430] | 6.42
ATTTTGTGCGCACACACATGCAAAAAGAAATATGAT [TGCATGCA_site261] | 10.5
AAAGAGAGTATCTAATGTACGTATGTATGTATATAT [XGTACX_site1780] | 6.74
ATATTATAATAAATGTGTACATATTGTAGAAATATT [XGTACX_site8101] | 6.56
AATTATTTACCCTATACACACAAAACACGCTAAAAA [CACACA_site1211] | 7.4
TATTATATATTAAATGCATGTAAAAATAATATTAAA [TGCATGCA_site643] | 6.59
TTCTTCAAGGAAAACACATGCGCATTTTCACCAATT [TGCATGCA_site11] | 8.44
ATATATATATATATATGTACATATGTATATTTTTTT [XGTACX_site1299] | 9.15
AAAATTATAATAATATGTACTTAAAAAATTTATATA [XGTACX_site632] | 6.07
TATATATATATATGTGCATGTTCCCCATGCTTCCAT [TGCATGCA_site366] | 9.5
TATATGTATTTATATACACACATATTCTTTTGACAC [CACACA_site1206] | 6.67
